# The list shows a part of the results.
# Test system: HSkMC (human skeletal muscle cells)
# Test: cytotoxicity call (relative viability < 0.9)
# Conditions: 10 µM
row,SMILES,cytotoxicity call
1,C[C@H](CO)N1C[C@H](C)[C@@H](CN(C)Cc2ccc(C(=O)O)cc2)Oc2c(NS(=O)(=O)c3cn(C)cn3)cccc2C1=O,inactive
2,COc1ccc(NC(=O)Nc2ccc3c(c2)CC(=O)N([C@@H](C)CO)C[C@H](C)[C@@H](CN(C)C(=O)Nc2ccc(C(F)(F)F)cc2)O3)cc1,inactive
3,COc1ccc(S(=O)(=O)Nc2ccc3c(c2)C(=O)N([C@@H](C)CO)C[C@H](C)[C@@H](CN(C)CC2CC2)O3)cc1,inactive
4,COc1ccc(S(=O)(=O)Nc2ccc3c(c2)C(=O)N([C@H](C)CO)C[C@H](C)[C@H](CN(C)C(=O)Nc2cccc4ccccc24)OCCCC[C@@H](C)O3)cc1,inactive
5,C[C@@H]1CN([C@H](C)CO)C(=O)CCCn2nncc2CO[C@H]1CN(C)C(=O)Nc1ccc(C(C)(C)C)cc1,inactive
6,C[C@@H]1CN([C@H](C)CO)C(=O)c2cccc(NC(=O)c3cnccn3)c2O[C@H]1CN(C)S(=O)(=O)c1ccc(Cl)cc1,inactive
7,O=C(C[C@@H]1CC[C@@H]2[C@H](COC[C@@H](O)CN2S(=O)(=O)c2ccccc2)O1)NCc1ccc2c(c1)OCO2,inactive
8,Cc1noc(C)c1S(=O)(=O)Nc1ccc2c(c1)C(=O)N([C@H](C)CO)C[C@H](C)[C@H](CN(C)S(C)(=O)=O)OCCCC[C@@H](C)O2,inactive
9,C[C@@H]1CN([C@H](C)CO)C(=O)c2cccc(NC(=O)Nc3ccc(F)cc3)c2O[C@H]1CN(C)Cc1ccc(C(=O)Nc2ccccc2N)cc1,inactive
10,O=C(C[C@H]1CC[C@@H]2[C@H](COC[C@H](O)CN2S(=O)(=O)c2ccccc2)O1)NCCN1CCCCC1,inactive
11,COc1ccc(CN(C)C[C@@H]2OCCCC[C@@H](C)Oc3ccc(NS(=O)(=O)c4cccs4)cc3C(=O)N([C@H](C)CO)C[C@H]2C)cc1,inactive

# Test system: HepG2
# Test: cytotoxicity call (relative viability < 0.9)
# Conditions: 10 µM
row,SMILES,cytotoxicity call
1,O=C(C[C@@H]1C[C@H]2c3cc(NC(=O)Nc4ccc(C(F)(F)F)cc4)ccc3O[C@H]2[C@H](CO)O1)NCCc1ccccc1,inactive
2,C[C@@H]1CN([C@@H](C)CO)C(=O)c2cc(NC(=O)CCC(F)(F)F)ccc2O[C@@H](C)CCCCO[C@H]1CN(C)Cc1ccccc1,inactive
3,C[C@@H](NS(=O)(=O)c1cccc(F)c1)C(=O)O,inactive
4,COc1ccc(S(=O)(=O)Nc2ccc3c(c2)C(=O)N([C@@H](C)CO)C[C@@H](C)[C@H](CN(C)C(=O)Nc2cccc4ccccc24)OCCCC[C@H](C)O3)cc1,inactive
5,C[C@@H]1CN([C@@H](C)CO)C(=O)c2cc(C#Cc3ccccc3F)cnc2O[C@@H]1CN(C)S(=O)(=O)c1ccccc1,inactive
6,O=C(C[C@@H]1C[C@@H]2c3cc(NS(=O)(=O)c4ccccc4)ccc3O[C@@H]2[C@@H](CO)O1)NC1CCCCC1,inactive
7,C[C@H](CO)N1C[C@H](C)[C@@H](CN(C)C(=O)Nc2ccc(C(F)(F)F)cc2)Oc2ccc(NC(=O)CCCCCC(=O)Nc3ccccc3N)cc2CC1=O,inactive
8,Cc1c(C(N)=O)sc2[nH]cnc(=O)c12,inactive
9,COc1ccc(NC(=O)Nc2cccc3c2O[C@@H](CN(C)Cc2ccc(Cl)c(Cl)c2)[C@H](C)CN([C@@H](C)CO)C3=O)cc1,inactive
10,C[C@@H]1CN([C@H](C)CO)C(=O)c2cc(NC(=O)NC3CCCCC3)ccc2O[C@H]1CN(C)C(=O)Nc1cccc2ccccc12,inactive
11,CCCN(C)C[C@H]1Oc2cc(C#Cc3cccc(OC)c3)ccc2S(=O)(=O)N([C@@H](C)CO)C[C@H]1C,inactive
12,Cc1noc(C)c1NC(=O)Nc1ccc2c(c1)C(=O)N([C@H](C)CO)C[C@H](C)[C@@H](CN(C)CC1CC1)OCCCC[C@H](C)O2,inactive
13,C[C@H]1CN([C@@H](C)CO)S(=O)(=O)c2ccc(Br)cc2O[C@@H]1CN(C)C(=O)c1cccnc1,inactive
14,Cc1noc(C)c1NC(=O)Nc1ccc2c(c1)CC(=O)N([C@@H](C)CO)C[C@@H](C)[C@H](CN(C)C(=O)Nc1ccc(C(F)(F)F)cc1)O2,inactive
15,C[C@H](CO)N1C[C@H](C)[C@H](CN(C)S(=O)(=O)c2ccc(C#N)cc2)OCc2cnnn2CCCC1=O,inactive
16,C[C@@H]1CCCCO[C@@H](CN(C)CC2CCCCC2)[C@H](C)CN([C@@H](C)CO)C(=O)c2cc(NC(=O)NC3CCCCC3)ccc2O1,inactive
17,CC(=C\C(=O)O)/C=C(\C)C[C@H](C)CCCC[C@H](OC(=O)[C@H](CO)[C@H](O)CCCC[C@H](C)C/C(C)=C/C(C)=C/C(=O)O)[C@@H](CO)C(=O)O,inactive
18,Cc1ccc(S(=O)(=O)Nc2ccc3c(c2)C(=O)N([C@H](C)CO)C[C@@H](C)[C@H](CN(C)S(=O)(=O)c2cccs2)O3)cc1,inactive
19,O=C(NC1CCCCC1)NC1CCCCC1,inactive
20,C[C@@H]1CCCCO[C@@H](CN(C)Cc2ccc(C(F)(F)F)cc2)[C@@H](C)CN([C@H](C)CO)C(=O)c2cc(NS(=O)(=O)c3ccc(F)cc3)ccc2O1,active

row,SMILES,cytotoxicity call
1,COc1ccc(C(=O)Nc2ccc3c(c2)C(=O)N(C)[C@@H]2CC[C@@H](CC(=O)NCC4CC4)O[C@@H]2CO3)cc1,inactive
2,CO[C@H]1CN(C)C(=O)c2cc(NS(C)(=O)=O)ccc2OC[C@H](C)N(C(=O)c2ccc3c(c2)OCO3)C[C@H]1C,inactive
3,C[C@H](CO)N1C[C@H](C)[C@@H](CN(C)CC2CC2)Oc2c(NC(=O)Nc3cccc4ccccc34)cccc2C1=O,inactive
4,Cc1ccc(-c2cccc(C(=O)N[C@H]3CC[C@@H](N)CC3)c2)o1,inactive
5,COc1cccc(-c2ccc3c(c2)O[C@H](CN(C)C(=O)C2CC2)[C@@H](C)CN([C@H](C)CO)S3(=O)=O)c1,inactive
6,COc1ccc(NC(=O)Nc2ccc3c(c2)C(=O)N([C@@H](C)CO)C[C@@H](C)[C@H](CN(C)S(=O)(=O)c2cn(C)cn2)O3)cc1,inactive
7,C[C@]1(C(=O)NCc2ccccc2)c2ccccc2C(=O)N(Cc2ccc(OC(F)(F)F)cc2)[C@H]1c1ccc(CO)cc1,inactive
8,COc1ccc(NC(=O)Nc2ccc3c(c2)C(=O)N([C@H](C)CO)C[C@H](C)[C@H](CN(C)Cc2ccc4c(c2)OCO4)OCCCC[C@@H](C)O3)cc1,inactive
9,C[C@@H]1CCCCO[C@H](CN(C)Cc2ccc(C(F)(F)F)cc2)[C@@H](C)CN([C@H](C)CO)C(=O)c2cc(NC(=O)Nc3cccc4ccccc34)ccc2O1,inactive
10,C[C@H](CO)N1C[C@H](C)[C@@H](CN(C)Cc2ccc(C(=O)O)cc2)Oc2c(NS(=O)(=O)c3cn(C)cn3)cccc2C1=O,inactive
11,COc1ccc(NC(=O)Nc2ccc3c(c2)CC(=O)N([C@@H](C)CO)C[C@H](C)[C@@H](CN(C)C(=O)Nc2ccc(C(F)(F)F)cc2)O3)cc1,inactive
12,COc1ccc(S(=O)(=O)Nc2ccc3c(c2)C(=O)N([C@@H](C)CO)C[C@H](C)[C@@H](CN(C)CC2CC2)O3)cc1,inactive
13,COc1ccc(S(=O)(=O)Nc2ccc3c(c2)C(=O)N([C@H](C)CO)C[C@H](C)[C@H](CN(C)C(=O)Nc2cccc4ccccc24)OCCCC[C@@H](C)O3)cc1,inactive
14,C[C@@H]1CN([C@H](C)CO)C(=O)CCCn2nncc2CO[C@H]1CN(C)C(=O)Nc1ccc(C(C)(C)C)cc1,inactive
15,C[C@@H]1CN([C@H](C)CO)C(=O)c2cccc(NC(=O)c3cnccn3)c2O[C@H]1CN(C)S(=O)(=O)c1ccc(Cl)cc1,inactive
16,O=C(C[C@@H]1CC[C@@H]2[C@H](COC[C@@H](O)CN2S(=O)(=O)c2ccccc2)O1)NCc1ccc2c(c1)OCO2,inactive
17,Cc1noc(C)c1S(=O)(=O)Nc1ccc2c(c1)C(=O)N([C@H](C)CO)C[C@H](C)[C@H](CN(C)S(C)(=O)=O)OCCCC[C@@H](C)O2,inactive
18,C[C@@H]1CN([C@H](C)CO)C(=O)c2cccc(NC(=O)Nc3ccc(F)cc3)c2O[C@H]1CN(C)Cc1ccc(C(=O)Nc2ccccc2N)cc1,inactive
19,O=C(C[C@H]1CC[C@@H]2[C@H](COC[C@H](O)CN2S(=O)(=O)c2ccccc2)O1)NCCN1CCCCC1,inactive
20,COc1ccc(CN(C)C[C@@H]2OCCCC[C@@H](C)Oc3ccc(NS(=O)(=O)c4cccs4)cc3C(=O)N([C@H](C)CO)C[C@H]2C)cc1,inactive

# Reference: the antibiotic and cytotoxicity screens of Wong et al. (2023)
